Results published in the supplement of paper PMC3334620.
In all, about 33,000 sequences were measured (“E-score (-0.5 to 0.5)”: median about -0.04, highest 2% from about 0.36 on). This is one part of the list.

biological target: T1, Hmlalpha2 (UniProt P0CY09); experiment: PBM E-score (8-mer binding enrichment) (E-score (-0.5 to 0.5)); higher = stronger / more preferred TF binding; most listed sequences are background and not binding sites; conditions: protein concentration: 200 nM; construct: GST-full length
T1 sequence: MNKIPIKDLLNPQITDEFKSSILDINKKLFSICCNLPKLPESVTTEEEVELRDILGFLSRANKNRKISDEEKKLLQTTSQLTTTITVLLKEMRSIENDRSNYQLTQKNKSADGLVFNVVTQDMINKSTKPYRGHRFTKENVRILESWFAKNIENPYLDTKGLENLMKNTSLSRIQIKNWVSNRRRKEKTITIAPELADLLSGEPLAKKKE
Outline: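 Full-length yeast transcription factors or their DNA-binding domains, GST-tagged and expressed with PURExpress, were applied at about 100-200 nM to universal all-10-mer Agilent arrays. These arrays had been made double-stranded by primer extension on fresh or once-stripped slides. Detection used fluorescent anti-GST, normalisation used masliner, and E-scores for ungapped eight-base words pooled with reverse complements came from the Universal PBM Analysis Suite.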

Sequence	PBM E-score
ATGGATTG	0.0786
CATACCGG	-0.154
ATATTCAT	0.202
ACGATTGG	0.0327
CTGGTGTA	0.0516
CCATCTCG	-0.35
AGCGGTTA	-0.103
ATGCCTTC	-0.151
AGGGAGCG	-0.31
AAAGATCA	0.158
ATCAAGGA	-0.0568
ACCGACCA	0.0128
ACACCTAC	0.039
CCTTTCCC	-0.176
ATGTAAAA	0.474
ACCGTCTC	-0.0522
CCGTTGAC	-0.133
GCAGACTA	-0.0219
CATGTTCG	0.259
CCGAAAGC	-0.185
TAACGTGA	0.208
GGGATGGA	-0.132
CCGTTTCC	-0.222
CGTCCCTC	-0.137
AAGTGGCT	-0.181

Sequence	PBM E-score
CAAGGCCG	-0.131
AAGTAGTC	0.0858
CGCTGCAG	-0.0676
TCAGAGGA	-0.307
GGCATAGA	-0.107
AGCCACTC	-0.2
GATGTTAC	0.304
CGAAAAAA	0.161
ATCCCAGC	-0.138
ACGCTGCG	-0.0283
CTTACCTC	-0.262
AGTCAAGA	-0.142
AAGGTGAA	-0.132
AACCGTAG	-0.25
AAAATTTT	-0.109
ATTTGCTA	0.0125
GTAGAAAC	0.307
GGACTTAA	-0.0169
AAAGTTCG	0.0197
CGAACCAA	-0.0324
AAAATCAC	0.145
CCCGCGAG	-0.168
CACACTGC	-0.12
CAGTTCCA	-0.0481
AGTCCTAT	-0.0214

Sequence	PBM E-score
CCTCAACA	0.302
TCCCAACA	0.106
CGCTCAAG	-0.156
CGAAGCAA	0.133
ACCCAGTC	-0.214
CTTAAAGC	-0.115
ATCCTGAG	-0.119
CCACTGGA	-0.211
ATGTGCCA	0.0579
CCTATCCC	-0.191
AATTACAG	0.307
AGACGCCC	-0.281
GCGCCACA	-0.0137
AAATTTTA	0.223
CCAAAATC	-0.0034
AACGTGAT	0.112
CCATGGCG	-0.0225
CCGATTGA	0.0466
AAAATGCA	-0.126
AACTCAGA	0.139
CCTTTCCG	-0.212
CTTCACGC	0.169
CACAGTGC	-0.0482
ATCCACTA	0.012
CTCCCGAA	-0.201

Sequence	PBM E-score
AACGTATT	0.265
GGGGAGAC	-0.267
AGCAGTAT	-0.129
CAACATGA	0.449
CAGCTAAA	0.0164
GCCTTTCC	-0.228
GCATATCA	0.0306
AAACCAAT	0.0981
GCGTTAAA	0.366
GGAAACCC	-0.159
CCTTTTAA	0.027
CTGCGATA	-0.0208
GACACATC	0.00043
AAGAGCCA	-0.0558
GACACTCC	-0.082
CCAGGAGC	-0.385
AAGAGACC	-0.0122
GGGATGTA	0.328
CTCATGGA	-0.142
ATCCAATG	-0.0262
ACGACCGA	0.0153
GTATTGAC	0.138
GGGGAAAC	-0.00316
GTTTCTCA	-0.0506
TAGAGGCA	-0.118

Sequence	PBM E-score
AAGCTGGA	-0.128
CACCATCA	-0.178
AACTGGTG	-0.176
CAAGCCCA	-0.0127
CAATCGAA	-0.054
GATATAGC	-0.0529
AGATACGG	-0.045
TAAAGGGA	-0.0824
AAGTCCGA	-0.145
GTCTAGGA	-0.0605
ACCTGTGA	0.166
AGGTGTGG	-0.306
GTATTTTA	0.319
AGATGGCG	-0.115
CACCATAA	-0.106
TACCAGCA	-0.0851
ATCATTCG	-0.0837
GGGAGCAC	-0.332
AGTAGCAG	-0.146
ATCGCGAG	-0.0629
GATTGTAC	0.133
CCAATACA	0.313
GAAGTTAC	0.13
TCTGAGAA	-0.0505
ACTTATAA	0.109

Sequence	PBM E-score
ATAAGTCA	0.0549
CAAGCCCG	-0.183
GACGGCCA	-0.215
AAACGTGT	0.375
ATAAAGAG	-0.0356
CACTGATG	-0.0893
GCGCCGTA	0.132
TCATGAGA	0.0706
CATGACGA	0.051
CAAAGGAG	-0.0938
ACGGTACA	-0.0496
AAGGGGGT	-0.219
AATGGTCG	-0.106
ATCCCGTC	0.0483
CAGTCCTC	-0.282
CCCTGCCC	-0.239
GCTTTGTA	0.316
ATTGCATG	0.239
CAAGCCGC	-0.136
AACGATCC	-0.242
AGTAAATG	0.314
ACTTTGAG	-0.0202
CGGGTCGA	-0.175
ACATGTGC	0.352
GATGCTGC	-0.159

Sequence	PBM E-score
ACGGATTG	-0.155
CCTACCGA	-0.229
AAAGGGTG	-0.0988
AACTACCG	-0.257
CTCGGAAG	-0.132
GACCTCTC	-0.0403
CTAGAGAC	-0.3
GGGGTTGA	-0.232
GATAAACC	-0.0176
AACATCGT	0.15
CGTTGGCA	-0.00267
GTTAGGCA	-0.00765
AATTACTC	0.281
CGCAATCC	-0.0707
ACTGTCAG	-0.0236
ACCGTGTG	0.113
GAGGTCTA	-0.0189
ACTCCTTC	-0.201
CGGCTTTC	-0.116
AGCTAGAG	-0.122
ACCCCTCT	-0.194
CGGTGTAC	0.0363
